# Measurements from publication PMC10267284.
# These are yes or no findings as the source states them, for the method shown. For part of these data: In cells and extracts the contact can be indirect. Some results given as binding are weak or reduced against the parent protein; the word gives no strength. For part of these data: Tags and fused reporters may be left off the sequences shown.
# T1: TARGET OF FLC AND SVP 1 (TFS1/REM17) (Arabidopsis thaliana) (UniProt Q84WP3)
# T1 sequence: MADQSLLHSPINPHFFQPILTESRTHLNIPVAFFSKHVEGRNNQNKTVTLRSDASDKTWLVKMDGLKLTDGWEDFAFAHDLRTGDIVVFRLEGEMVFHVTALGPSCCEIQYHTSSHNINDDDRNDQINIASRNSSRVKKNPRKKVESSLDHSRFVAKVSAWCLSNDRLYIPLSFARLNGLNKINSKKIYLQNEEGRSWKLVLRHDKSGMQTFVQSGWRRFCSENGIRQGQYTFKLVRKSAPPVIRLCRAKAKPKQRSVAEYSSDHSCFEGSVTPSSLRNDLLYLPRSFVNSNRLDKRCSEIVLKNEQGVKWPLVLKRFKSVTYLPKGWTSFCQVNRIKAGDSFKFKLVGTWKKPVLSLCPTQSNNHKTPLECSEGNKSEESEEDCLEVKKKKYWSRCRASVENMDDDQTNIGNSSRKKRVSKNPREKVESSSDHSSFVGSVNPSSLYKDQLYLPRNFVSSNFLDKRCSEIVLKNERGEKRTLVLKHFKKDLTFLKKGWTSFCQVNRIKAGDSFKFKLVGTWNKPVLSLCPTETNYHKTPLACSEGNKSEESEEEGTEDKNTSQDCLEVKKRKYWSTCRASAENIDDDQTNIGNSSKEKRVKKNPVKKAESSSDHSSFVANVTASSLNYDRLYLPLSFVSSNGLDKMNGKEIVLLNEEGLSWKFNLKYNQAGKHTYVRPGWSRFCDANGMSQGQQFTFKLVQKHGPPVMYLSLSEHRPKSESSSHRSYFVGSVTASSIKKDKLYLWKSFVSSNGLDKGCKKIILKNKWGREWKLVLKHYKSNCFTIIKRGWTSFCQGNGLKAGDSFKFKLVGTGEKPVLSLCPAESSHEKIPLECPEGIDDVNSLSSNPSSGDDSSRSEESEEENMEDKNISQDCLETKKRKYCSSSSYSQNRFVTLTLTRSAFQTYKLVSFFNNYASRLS
# T2: REM34 (Arabidopsis thaliana) (UniProt Q84J39)
# T2 sequence: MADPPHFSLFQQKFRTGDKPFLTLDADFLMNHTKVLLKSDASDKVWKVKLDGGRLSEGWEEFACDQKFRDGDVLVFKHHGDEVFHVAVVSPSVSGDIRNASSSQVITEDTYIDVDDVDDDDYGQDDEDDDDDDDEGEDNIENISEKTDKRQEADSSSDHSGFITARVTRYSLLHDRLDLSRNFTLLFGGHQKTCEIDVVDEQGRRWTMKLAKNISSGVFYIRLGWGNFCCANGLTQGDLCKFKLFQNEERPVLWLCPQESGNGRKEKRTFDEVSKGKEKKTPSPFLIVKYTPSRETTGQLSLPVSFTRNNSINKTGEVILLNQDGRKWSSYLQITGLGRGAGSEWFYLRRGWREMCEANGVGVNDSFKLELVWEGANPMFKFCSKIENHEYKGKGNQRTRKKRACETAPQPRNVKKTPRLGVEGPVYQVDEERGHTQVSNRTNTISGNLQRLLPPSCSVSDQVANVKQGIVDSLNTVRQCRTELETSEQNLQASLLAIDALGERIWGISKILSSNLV
# How the values were obtained:
# [1] = target: T1, TARGET OF FLC AND SVP 1 (TFS1/REM17) (Arabidopsis thaliana); assay: two-hybrid; yeast strain AH109; bait (pGBKT7) and prey (pGADT7) co-transformed; synthetic dropout medium lacking leucine, tryptophan and histidine with 1, 2.5 or 5 mM 3-AT; 5 days at 28 °C; four independent colonies for each pair
# [2] = target: T2, REM34 (Arabidopsis thaliana); assay: as above
# [3] = target: TARGET OF FLC AND SVP 1 (TFS1/REM17), BiFC fusion (Arabidopsis thaliana) (UniProt Q84WP3); assay: split reporter; BiFC (pYFN43 / pYFC43) in Nicotiana benthamiana leaves infiltrated with Agrobacterium and the viral suppressor p19; confocal imaging of the abaxial surface three days after inoculation
# [4] = target: REM13 (Arabidopsis thaliana) (UniProt Q9STF1); assay: two-hybrid; yeast strain AH109; bait (pGBKT7) and prey (pGADT7) co-transformed; synthetic dropout medium lacking leucine, tryptophan and histidine with 1, 2.5 or 5 mM 3-AT; 5 days at 28 °C; four independent colonies for each pair
binding [1],binding [2],binding [3],binding [4],Binder
binds,no binding,,,"TARGET OF FLC AND SVP 1 (TFS1/REM17) (protein, UniProt Q84WP3 1-920) MADQSLLHSPINPHFFQPILTESRTHLNIPVAFFSKHVEGRNNQNKTVTLRSDASDKTWLVKMDGLKLTDGWEDFAFAHDLRTGDIVVFRLEGEMVFHVTALGPSCCEIQYHTSSHNINDDDRNDQINIASRNSSRVKKNPRKKVESSLDHSRFVAKVSAWCLSNDRLYIPLSFARLNGLNKINSKKIYLQNEEGRSWKLVLRHDKSGMQTFVQSGWRRFCSENGIRQGQYTFKLVRKSAPPVIRLCRAKAKPKQRSVAEYSSDHSCFEGSVTPSSLRNDLLYLPRSFVNSNRLDKRCSEIVLKNEQGVKWPLVLKRFKSVTYLPKGWTSFCQVNRIKAGDSFKFKLVGTWKKPVLSLCPTQSNNHKTPLECSEGNKSEESEEDCLEVKKKKYWSRCRASVENMDDDQTNIGNSSRKKRVSKNPREKVESSSDHSSFVGSVNPSSLYKDQLYLPRNFVSSNFLDKRCSEIVLKNERGEKRTLVLKHFKKDLTFLKKGWTSFCQVNRIKAGDSFKFKLVGTWNKPVLSLCPTETNYHKTPLACSEGNKSEESEEEGTEDKNTSQDCLEVKKRKYWSTCRASAENIDDDQTNIGNSSKEKRVKKNPVKKAESSSDHSSFVANVTASSLNYDRLYLPLSFVSSNGLDKMNGKEIVLLNEEGLSWKFNLKYNQAGKHTYVRPGWSRFCDANGMSQGQQFTFKLVQKHGPPVMYLSLSEHRPKSESSSHRSYFVGSVTASSIKKDKLYLWKSFVSSNGLDKGCKKIILKNKWGREWKLVLKHYKSNCFTIIKRGWTSFCQGNGLKAGDSFKFKLVGTGEKPVLSLCPAESSHEKIPLECPEGIDDVNSLSSNPSSGDDSSRSEESEEENMEDKNISQDCLETKKRKYCSSSSYSQNRFVTLTLTRSAFQTYKLVSFFNNYASRLS"
,,binds,,"TARGET OF FLC AND SVP 1 (TFS1/REM17), BiFC fusion (protein, UniProt Q84WP3 1-920) MADQSLLHSPINPHFFQPILTESRTHLNIPVAFFSKHVEGRNNQNKTVTLRSDASDKTWLVKMDGLKLTDGWEDFAFAHDLRTGDIVVFRLEGEMVFHVTALGPSCCEIQYHTSSHNINDDDRNDQINIASRNSSRVKKNPRKKVESSLDHSRFVAKVSAWCLSNDRLYIPLSFARLNGLNKINSKKIYLQNEEGRSWKLVLRHDKSGMQTFVQSGWRRFCSENGIRQGQYTFKLVRKSAPPVIRLCRAKAKPKQRSVAEYSSDHSCFEGSVTPSSLRNDLLYLPRSFVNSNRLDKRCSEIVLKNEQGVKWPLVLKRFKSVTYLPKGWTSFCQVNRIKAGDSFKFKLVGTWKKPVLSLCPTQSNNHKTPLECSEGNKSEESEEDCLEVKKKKYWSRCRASVENMDDDQTNIGNSSRKKRVSKNPREKVESSSDHSSFVGSVNPSSLYKDQLYLPRNFVSSNFLDKRCSEIVLKNERGEKRTLVLKHFKKDLTFLKKGWTSFCQVNRIKAGDSFKFKLVGTWNKPVLSLCPTETNYHKTPLACSEGNKSEESEEEGTEDKNTSQDCLEVKKRKYWSTCRASAENIDDDQTNIGNSSKEKRVKKNPVKKAESSSDHSSFVANVTASSLNYDRLYLPLSFVSSNGLDKMNGKEIVLLNEEGLSWKFNLKYNQAGKHTYVRPGWSRFCDANGMSQGQQFTFKLVQKHGPPVMYLSLSEHRPKSESSSHRSYFVGSVTASSIKKDKLYLWKSFVSSNGLDKGCKKIILKNKWGREWKLVLKHYKSNCFTIIKRGWTSFCQGNGLKAGDSFKFKLVGTGEKPVLSLCPAESSHEKIPLECPEGIDDVNSLSSNPSSGDDSSRSEESEEENMEDKNISQDCLETKKRKYCSSSSYSQNRFVTLTLTRSAFQTYKLVSFFNNYASRLS"
no binding,no binding,,no binding,"REM13 (protein, UniProt Q9STF1 1-276) MEENSSKKKLSETMSIQDTVLKFFRVYIPNQTADDMNLPLVSDKISGKPLPRKVTVKSVSSGNIWRMEMKANGNTVFLRDGWKKIVKDENVTEPIFLEFEFDGYGVFHFCVYEYGSMCKRMRSPMEKEVIKVDSEEDVLVGNEESTKGLEESPRRGGTSRRRAKLKTKSHKIYEHLDNKLNPSFPVDMTQNRTRIPSLLIKDYNLTFPNMVIMRDKIGILKRRIVIWKNRSVYLNGIGSIIRRNHVKPGNEVVFELKMVNGYHGLVHEIKVHIIKA"
